# In PubChem BioAssay AID662 (National Center for Advancing Translational Sciences (NCATS), 2007):
# Hit rate of the full screen: of about 71,000 compounds, about 1,800 (2.5%) were called active. Inconclusive means that the source gave no clear call. Such entries were picked first, then a sample of the others. Calls come from the whole dose curve; as a rule, active = well fitted activation curve with a large enough effect in the signal ratio, with a control signal flat (not every such curve was filed as active); inconclusive = small, poorly fitted or top-dose-only effect, or effect the other way, or a change in a side signal; inactive = flat fitted curve, though single readings scatter; the % refers to the signal ratio. Potencies beside an inconclusive call are fits to weak or partial responses and may not hold up.
# Assay: Cell signaling CRE-BLA (Fsk stim); for activity change, negative = inhibition: % of control where 0% means no effect
# Settings: CHO CRE-bla reporter (cAMP response element driving beta-lactamase), forskolin EC10, beta-lactamase ratio; activity change, negative = inhibition: at 38.2 µM (top of the series) unless noted
# Method in brief: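 CRE-bla CHO reporter cells treated with compound titration plus EC10 NKH 477 (water-soluble forskolin), incubated 3 h at 37 °C; CCF4 loading 2 h at room temperature, 460/530 nm emission ratio read, AC50 values derived for positive or negative modulators.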
# Potency is the fitted concentration of half-maximal effect; tags give direction and shape of the fitted curve.
SMILES,Potency,"activity change, negative = inhibition"
CCOC(=O)c1c(C)n(C)c2ccc(OCC(O)CN3C(=O)c4ccccc4S3(=O)=O)cc12 (configuration not stated),active: 2 µM,–
O=C1c2[nH]nc(-c3ccccc3O)c2C(c2ccccc2)N1Cc1ccco1 (configuration not stated),–,inconclusive: -2.45%
CCSc1nnc(NC(=O)Cc2ccc(OC)c(S(=O)(=O)N3CCOCC3)c2)s1,–,inconclusive: 8.94%
COC(=O)c1cccc(Oc2nc3c(c(=O)n(C)c(=O)n3C)n2C(C)C)c1,active: 2.51 µM,–
CC(C)Cn1c(SCC#N)nc2ccccc2c1=O,"inconclusive: 1.26 µM [rising, partial curve, poor fit]",–
CCCOc1c(OC)cccc1C1CC(=O)Nc2cc3c(cc21)OCO3 (configuration not stated),"inconclusive: 12.6 µM [rising, single point]",–
COc1cccc(N2CC(O)=C(c3nc4ccccc4c(=O)[nH]3)C2=N)c1,"inconclusive: 12.6 µM [rising, partial curve]",–
NNC(=O)c1ccc[n+](CCc2ccccc2)c1,–,inactive: 9.21% [at 7.6 µM]
Cc1ccc(CNc2cc(-c3nn4c(C)nnc4s3)ccc2C)s1,active: 20 µM,–
O=C(c1ccc2c(c1)c(=O)oc1ccccc12)N1CCCCC1,"inconclusive: 3.98 µM [rising, full curve]",–
COc1ccc(-n2c(SCC(=O)OC(C)C)nnc2-c2ccccn2)cc1,"inconclusive: 6.31 µM [rising, partial curve]",–
CC1CN(Cc2nc3c(c(=O)n(C)c(=O)n3C)n2CCN2CCOCC2)CC(C)O1 (configuration not stated),–,inconclusive: -2.97%
Cn1cc(-c2nc3cnc(N4CCNCC4)nc3n(CCc3ccccc3)c2=O)c2ccccc21,"inconclusive: 0.398 µM [rising, full curve]",–
Cc1ccc(CN2CC34C=CC(O3)C(C(=O)NCc3ccc5c(c3)OCO5)C4C2=O)cc1 (configuration not stated),–,inactive: -3.82%
CCCCCOc1ccc(N2C(=O)CC(N(O)c3ccccc3)C2=O)cc1 (configuration not stated),–,inconclusive: -12.4%
Cc1csc2c(C#N)c(=O)c3c(n12)CCC3,"inconclusive: 20 µM [rising, single point]",–
Cc1noc(C)c1-c1nc(Nc2ccncc2)c2ccccc2n1,"inconclusive: 10 µM [rising, partial curve]",–
CC(=O)c1c(N(C)C)ccnc1C(F)(F)F,–,inconclusive: -6.72% [at 7.6 µM]
Cc1nn(-c2ccccc2C(=O)O)c(=O)c2ccccc12,"inconclusive: 1 µM [rising, partial curve]",–
CCCOC(=O)C1[C@H]2C(=O)N(CC3CCCO3)C[C@]23C=C[C@H]1O3 (some centres not stated),–,inactive: 5.52%
Cc1ccc(CNC(=O)c2cc3c(=O)n(C)c4ccccc4c3n2C)o1,"inconclusive: 5.01 µM [rising, partial curve]",–

SMILES,Potency,"activity change, negative = inhibition"
CC(C)(C)n1ncc2c(=O)n(CC(=O)NCc3ccco3)cnc21,–,inconclusive: 7.84%
Cn1c2ccccc2c2c(C(=O)N3CCN(c4ccccc4)CC3)cn(C3CCCC3)c(=O)c21,–,inactive: -1.67%
Cc1ccc2cc(C#N)c(N3CCCN(C(=O)C4CCCO4)CC3)nc2c1 (configuration not stated),–,inconclusive: 24.1%
O=C(O)/C(Cc1ccc([N+](=O)[O-])cc1)=N/O,–,inactive: -0.924% [at 7.6 µM]
CCOC(=O)c1sc(NC(=O)C(CC)Sc2nnc3c4ccccc4n(CC)c3n2)nc1C (configuration not stated),"inconclusive: 6.31 µM [rising, partial curve, poor fit]",–
Cc1cccc(C)c1OCc1nnc(SCC(=O)NCCc2ccccc2)o1,–,inactive: -4.29%
O=C(O)CCC(=O)Nc1ccc(N2CCOCC2)cc1,–,inconclusive: 2.4%
CCn1c(NCCc2ccc(OC)c(OC)c2)nc2c1c(=O)n(C)c(=O)n2C,–,inconclusive: 28.3%
O=C1N2CCSC2=NC1(Nc1nccs1)C(F)(F)F (configuration not stated),–,inactive: -13.2%
COc1ccccc1C(=O)Nc1ccc(S(=O)(=O)N2CCCC2)cc1,–,inconclusive: 25.9%
COC(=O)c1ccc(C(=O)OC)c(NC(=O)CSc2nnc(-c3ccccc3Cl)o2)c1,–,inactive: -3.01%
COc1ccc(C(c2sc3nc(C)nn3c2O)N2CCN(CCO)CC2)cc1OC (configuration not stated),–,inconclusive: -3.53%
Cc1nc2n(n1)C(c1ccccc1)C1=C(CC(c3ccco3)CC1=O)N2 (configuration not stated),–,inconclusive: 16.3%
Cc1cc(Nc2ccc(F)cc2Cl)n2ncnc2n1,"inconclusive: 10 µM [rising, single point]",–
Cn1c(C(=O)N2CCN(Cc3ccc4c(c3)OCO4)CC2)cc2c(=O)n(C)c3ccccc3c21,"inconclusive: 10 µM [rising, partial curve]",–
CCCc1ccc2c(N)c(C#N)sc2n1,active: 10 µM,–
COC(=O)[C@H](C)NC(=O)Nc1ccc(C)c(C)c1,–,inactive: -8.22%
COc1cccc(NC=C2C(=O)OC(C)(C)OC2=O)c1,–,inconclusive: 8.6% [at 7.6 µM]
COc1ccc(S(=O)(=O)N2CCC(C(=O)N3CCc4ccccc4C3)CC2)cc1OC,–,inconclusive: 2.85% [at 7.6 µM]
Cn1c2ccccc2c2cc(C(=O)OCC(=O)N3CC(=O)Nc4ccccc43)sc21,–,inactive: 0.517%
Clc1ccc(CN2CCCN(Cc3ccc(Cl)cc3)C2c2cc3ccccc3c3ccccc23)cc1,–,inactive: 0.242% [at 7.6 µM]
